Test results reported in PubChem BioAssay AID1508642 (National Center for Advancing Translational Sciences (NCATS), 2021).
The whole screen tested about 43,000 compounds, of which about 200 (0.47%) were called active. Another 12% or so got no clear call; they are omitted. Calls follow the shape of the dose curve; as a rule, active = well fitted cell-killing curve with a large enough effect; inconclusive = small, poorly fitted or top-dose-only effect, or effect the other way; inactive = flat fitted curve, though single readings scatter. Some of the results follow.

Experiment: Cell viability qHTS assay in S16 Pmp22-F2sN cells; also: nearly all actives have a fitted effect of over 65% in size
Settings: S16 Pmp22-F2sN Schwann cells (luciferase reporters placed in the Pmp22 gene) viability, CellTiter-Glo, 24 h; series mostly up to 57.5 µM; activity change, negative = cytotoxicity: at the top concentration
Method in brief: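 CellTiter-Glo counter-screen, qHTS, 1536-well. Cells: S16(c9) Pmp22-F2sN, 500-1,000/well in DMEM + 10% FBS. Cpd 23 nL pin transfer, 24 h, 37C/5% CO2. Read: luminescence, CCD imager.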
% is scaled to controls: 0 for no effect and ±100 for the full control effect.

Compound | activity change, negative = cytotoxicity
Cc1cn2c(=O)cc(COC(=O)c3cccc(NC(=O)C(C)Oc4ccccc4)c3)nc2s1 (configuration not stated) | inactive: -5.47%
Cc1cc(C)c2c(n1)nn1c(C)c(CCC(=O)Nc3ccc(C)c(Cl)c3)c(C)nc21 | inactive: 2.35%
CCOc1ccccc1NC(=O)c1c(NC(=O)C(C)Oc2cccc(Cl)c2)sc2c1CCCCC2 (configuration not stated) | inactive: 10.7%
CCSC1=NC2(CCN(C(=O)NC3CCCCC3)CC2)N=C1c1ccc(C)cc1 | inactive: -16%
Cc1cc(S(=O)(=O)Nc2cc3c(cc2C)n(C)c(=O)c(=O)n3C)ccc1F | inactive: 6.44%
COc1ccc(Nc2cc(C(=O)NCCCN(C)Cc3ccccc3)c3ccccc3n2)cc1OC | inactive: -29.9%
COc1ccc(-n2nc3cc(C)c(NC(=O)COc4cccc(C)c4)cc3n2)cc1 | inactive: 10.8%
COc1cccc(CNC(=O)C(=O)NCC(c2cccs2)S(=O)(=O)c2cccs2)c1 (configuration not stated) | inactive: 0.304%
COc1cccc(OCc2nc3ccccc3n2Cc2ccccc2)c1 | inactive: -3.39%
CCn1c(Oc2ccc(F)cc2F)nc2c1c(=O)n(C)c(=O)n2C | inactive: -15.4%
CCOc1ccc(CC(=O)Nc2c(C(=O)c3ccc(Cl)cc3)oc3ccccc23)cc1OCC | inactive: 5.3%
CC1=C(C(=O)Nc2ccc(Cl)cc2)C(c2cccs2)n2nc(SCc3cccc(Cl)c3)nc2N1 (configuration not stated) | inactive: 2.6%
Cc1cccc(S(=O)(=O)c2cn(Cc3ccccc3)c3cc(N4CCC(C)CC4)c(F)cc3c2=O)c1 | inactive: 6.76%
CCC1=Nc2cc(C(=O)NCCc3ccccc3)ccc2Sc2ccc(Cl)cc21 | inactive: -8.13%
CCc1cc2c(cc3c(=O)n(CC(=O)NCc4cccc(Cl)c4)nc(CC)n32)s1 | inactive: 3.06%
CCC(CC)C(=O)Nc1cccc(-c2nc3cccnc3s2)c1 | inactive: -7.35%
COc1cccc(COC(=O)c2nn(-c3ccccc3)nc2N)c1 | inactive: 8.37%
Cc1ccc(CNC(=O)C2CCN(c3nn4cc(-c5ccc(F)cc5)nc4s3)CC2)cc1 | inactive: -0.203%
COc1ccc(C(=O)NCC(c2cccnc2)N2CCc3ccccc3C2)cc1 (configuration not stated) | inactive: -2.91%
CCN(CC)c1ccc(NC(=O)CCS(=O)(=O)c2cccc3nsnc23)c(C)c1 | inactive: 3.07%
CCOC(=O)c1[nH]c(C)c(CCC(=O)Nc2cc(Cl)ccc2C)c1C | inactive: -3.02%
CNC(=O)C1CCC(Cn2c(=O)c3sccc3n(Cc3ccccc3)c2=O)CC1 (configuration not stated) | inactive: 4.93%
Cc1csc2nc(COC(=O)c3ccccc3NC(=O)c3ccccc3Cl)cc(=O)n12 | inactive: -20.3%
COc1ccccc1CCNC(=O)c1cc2c(=O)n3cccc(C)c3nc2n1C | inactive: 22.9%

Compound | activity change, negative = cytotoxicity
CCOc1ccc(-c2nc(Cn3c(=O)cc(-c4ccccc4)c4c(C)nn(C)c43)c(C)o2)cc1OC | inactive: 11.8%
COCCn1c(C)cc(O)c(C(c2ccccc2)N2CCN(c3ccc(F)cc3)CC2)c1=O (configuration not stated) | inactive: 6.01%
Cc1ccc(N(C)C(=O)Cn2nc(Cc3ccncc3)c3ccccc3c2=O)cc1C | inactive: 3.41%
COC(=O)c1c(SC)nc2ccccc2c1OCc1cccc(C)c1 | inactive: -5.64%
O=C(NCCc1ccc(Cl)cc1)c1ccc(CS(=O)(=O)Cc2ccc(F)cc2)o1 | inactive: -2.88%
O=C(Nc1ccc(F)cc1)c1ccc(-n2cnc3cccnc32)cc1 | inactive: 1.36%
CCCC(=O)N(c1ccc2oc3c(c2c1)CCCC3)S(=O)(=O)c1ccc(CC)cc1 | inactive: -1.04%
O=c1c(S(=O)(=O)c2ccccc2)cn(Cc2ccc(F)cc2)c2cc(N3CCCC3)c(F)cc12 | inactive: -0.697%
Cc1ccc(OCc2cc(=O)n3c4c(sc3n2)CCCC4)c(C)c1 | inactive: 11.8%
COc1cccc(CNC(=O)C2CCC(CNS(=O)(=O)c3cccs3)CC2)c1 (configuration not stated) | inactive: 1.33%
COc1ccc(NCc2nc3ccccc3n2CCOc2ccccc2C)cc1 | inactive: -22.9%
Cc1ccccc1NC(=O)c1ccc(NC(=O)N2CCSc3ncccc32)cc1 | inactive: 3.28%
COc1cccc(NC(=O)c2sc(-n3nc(C)c(Cc4ccccc4Cl)c3C)nc2C)c1 | inactive: 0.121%
CC1CCN(S(=O)(=O)c2ccc3c(c2)N(CC(=O)NCc2ccccc2Cl)C(=O)CO3)CC1 | inactive: 17.4%
COc1ccc(OC)c(-n2c(=O)[nH]c3cc(C(=O)NCCc4ccc(OC)c(OC)c4)ccc3c2=O)c1 | inactive: 5.75%
Cc1ccccc1C(=O)Nc1cccc(-c2nc3cccnc3s2)c1 | inactive: 0.649%
COc1ccc(C(CNC(=O)COc2cc(C)c(Cl)c(C)c2)N2CCCCC2)cc1 (configuration not stated) | inactive: -3.97%
CCCN(CCC)C(=O)c1c[nH]c2ccc(S(=O)(=O)N(C)c3ccc(Cl)cc3)cc2c1=O | inactive: -16.3%
COc1ccc(Cn2ccc3nc(C)c(C(=O)Nc4ccc(OC)c(OC)c4)cc3c2=O)cc1 | inactive: 0.564%
COc1cccc(N2CCN(C(=O)CCn3nc(C)c(S(=O)(=O)N4CCCC4)c3C)CC2)c1 | inactive: 1.09%
O=C(CSc1nc(=O)n(Cc2ccncc2)c2c1CCC2)Nc1ccccc1 | inactive: 5.35%
CCOc1ccccc1N(C)C(=O)c1sc2nc3n(c(=O)c2c1C)CCCC3 | inactive: -2.08%
Cc1nn(CC(=O)Nc2ccc(C(C)C)cc2)c(=O)c2c(C)n(-c3ccc(Cl)cc3)nc12 | inactive: -14.9%
